Laboratory results published in PubChem BioAssay AID1466 (National Center for Advancing Translational Sciences (NCATS), 2008).
Among all 200,000 compounds or so, about 10 (0.005%) were called active. The inconclusive results got no clear call from the source; some entries with a clear call stand among them for comparison. Calls follow the shape of the dose curve; as a rule, active = well fitted inhibition curve with a large enough effect; inconclusive = small, poorly fitted or top-dose-only effect, or effect the other way, or another doubt; inactive = no such curve, though single readings can be large or run the other way. No potency is given beside an inconclusive call; the fits are too rough.

Each molecule was assayed against Lysosomal alpha-glucosidase (Homo sapiens) (UniProt P10253) (assay: qHTS Assay for Inhibitors of Human alpha-Glucosidase as a Potential Chaperone Treatment of Pompe Disease). Conditions: purified human GAA, 4-MU-alpha-glucoside fluorescence; activity change, negative = inhibition: at 76.9 µM (top of the series) unless noted.
Method in brief: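 Fluorescence at Ex 365/Em 440 nm from 4-methylumbelliferone reported enzyme activity after 20 min at room temperature. Reactions used 4 nM enzyme and 400 uM substrate at pH 5.0; curves fitted with the Hill equation.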
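For activity change, negative = inhibition in this document: plate controls were uninhibited enzyme wells for no effect and no-enzyme background for full effect.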
Potency is read from the fitted curve at half-maximal effect; tags tell the direction and shape of the fitted curve.

Row | Structure (SMILES) | Potency | activity change, negative = inhibition
1 | COC(=O)C(O)(CC(=O)c1ccc(OC)cc1)C(F)(F)F (stereo not given) | inconclusive [inhibitor, partial curve, poor fit] | –
2 | O=C(COC(=O)C12CC3CC(CC(C3)C1)C2)N1CCN(S(=O)(=O)c2ccccc2)CC1 | inconclusive [inhibitor, single point] | –
3 | COc1cccc(CNC(=O)CCC2CCCN(C(=O)c3cc4ccccc4o3)C2)c1 (stereo not given) | inconclusive [inhibitor, single point] | –
4 | Cc1ccc(N2C(=O)c3ccccc3C2Nc2ccc(S(=O)(=O)N3CCCCC3)cc2)nc1 (stereo not given) | inconclusive [inhibitor, single point] | –
5 | COc1ccc2c(=O)cc(-c3ccccc3F)oc2c1 | inconclusive [inhibitor, single point] | –
6 | Cc1noc(C)c1C(=O)N1CCC(C(=O)c2ccccc2)CC1 | – | inconclusive: -15.4% [inhibitor]
7 | COc1ccc(-n2c(O)c(/C=N/NS(=O)(=O)c3cccc([N+](=O)[O-])c3)c3ccccc3c2=O)cc1OC | inconclusive [activator, partial curve] | –
8 | COc1ccc(S(=O)(=O)N(CCCN2CCOCC2)Cc2cccc3ccccc23)cc1 | inconclusive [inhibitor, full curve, poor fit] | –
9 | CCOc1cc2[nH]c(=O)n(CCC(=O)N3CCN(c4ccccc4OC)CC3)c(=O)c2cc1OCC | inconclusive [inhibitor, single point] | –
10 | CCN(CCn1cccn1)C(=O)CCc1nnc(CCCc2ccccc2)o1 | – | inconclusive: 12.6% [activator]
11 | O=C(Nc1ccc2c(c1)OCCO2)c1ccc(Br)o1 | inactive | –
12 | N#C/C(=C\c1ccccc1[N+](=O)[O-])c1nc(C2CC2)cs1 | inconclusive [inhibitor, single point] | –
13 | COc1ccc(OCC(=O)Nc2ccc(S(=O)(=O)N3CCN(C)CC3)cc2)cc1 | – | inconclusive: 11.1% [activator]
14 | COCc1cc(/C=N\NC(=O)Cc2ccc(OC)cc2)ccc1OC | inconclusive [inhibitor, full curve, poor fit] | –
15 | COc1ccc(CCN2C(=O)c3[nH]nc(-c4ccccc4O)c3C2c2ccc(C)cc2)cc1OC (stereo not given) | inconclusive [inhibitor, partial curve, poor fit] | –
16 | CC12C(=O)N(c3ccccc3C(=O)O)C(=O)C1C1C=CC2C1 (stereo not given) | inconclusive [inhibitor, single point] | –
17 | Cc1ccc(-n2c(C)cc(C(=O)COC(=O)C3=NNC(=O)CC3)c2C)cc1 | inconclusive [inhibitor, partial curve] | –
18 | O=[N+]([O-])c1ccc(N2CCN(S(=O)(=O)c3ccccc3)CC2)cc1NCCN1CCOCC1 | – | inconclusive: -19.3% [inhibitor]
19 | CCOc1ccc2[nH]c(=O)c(CN(Cc3cccnc3)C(=O)Nc3ccccc3OC)cc2c1 | inconclusive [inhibitor, single point] | –
20 | CC(=O)Nc1ccc(S(=O)(=O)N(Cc2ccccc2)c2ccccc2)cc1 | inconclusive [activator, partial curve, poor fit] | –
21 | O=[N+]([O-])c1ccc(Nc2ccccn2)c([N+](=O)[O-])c1 | – | inconclusive: 18.5% [activator]
22 | c1csc(C2Nc3ccccc3-c3nc4ccccc4n32)c1 (stereo not given) | inconclusive [activator, partial curve] | –

Row | Structure (SMILES) | Potency | activity change, negative = inhibition
23 | CCC(=O)Nc1c(C#N)c2nc3ccccc3nc2n1-c1ccccc1C | inconclusive [activator, partial curve] | –
24 | Cc1ccc(NC(=O)CCC(C(=O)O)N2C(=O)c3ccccc3C2=O)cc1 (stereo not given) | inconclusive [inhibitor, full curve] | –
25 | CCn1c(SCC(=O)NC2CCCC2)nnc1-c1c[nH]c2ccccc12 | inconclusive [inhibitor, single point] | –
26 | O=c1oc(-c2ccccc2NS(=O)(=O)c2ccc(F)cc2)nc2ccccc12 | inconclusive [inhibitor, single point] | –
27 | CC(=O)Nc1ccc2nc(CN3CCN(CC(C)C)C(CCO)C3)ccc2c1 (stereo not given) | – | inconclusive: 20.5% [activator]
28 | COc1ccc(CNC(=O)Cn2nc(Cc3cccnc3)c3ccccc3c2=O)cc1 | inconclusive [inhibitor, single point] | –
29 | CCc1c(C)nc2ncnn2c1N1CCCC(C(=O)NCCc2ccccc2)C1 (stereo not given) | inconclusive [inhibitor, partial curve] | –
30 | C#CCN1C(=O)S/C(=C\c2ccc(N3CCOCC3)cc2C)C1=O | – | inconclusive: 15.6% [activator]
31 | CCOc1ccc(NC(=S)NCCCc2ccccc2)cc1 | inconclusive [inhibitor, single point] | –
32 | CC(C)(C)NC(=O)COC(=O)c1ccc(Cl)nc1 | inconclusive [inhibitor, partial curve, poor fit] | –
33 | CCOC(=O)N1CCN(C(=O)c2cn(C)c3ccc(S(=O)(=O)N4CCC(C)CC4)cc3c2=O)CC1 | inconclusive [inhibitor, single point] | –
34 | Brc1ccccc1-c1nnc(-c2cccnc2)o1 | inconclusive [inhibitor, partial curve, poor fit] | –
35 | CC1CN(C(=O)COC(=O)c2ccc(Cl)c(S(=O)(=O)N3CCCCC3)c2)CC(C)O1 (stereo not given) | – | inconclusive: 15.1% [activator]
36 | Cc1ccc(O)c(CNc2nc3ccccc3n2C)c1 | inconclusive [activator, partial curve] | –
37 | O=c1cc(CN2CCc3ccccc32)c2ccc(O)cc2o1 | inconclusive [activator, partial curve] | –
38 | Cc1cc(/C=C2/NC(=O)NC2=O)c(C)n1-c1sc2c(c1C#N)CCCC2 | – | inconclusive: -16.3% [inhibitor]
39 | O=S(=O)(c1ccc(F)cc1)N1CCN(Cc2ccccn2)CC1 | – | inconclusive: 16.7% [activator]
40 | Cc1ccc(NC(=O)COc2ccc(/C(N)=N/O)cc2)cc1C | inconclusive [inhibitor, single point] | –
41 | Cc1cccn2cc(-c3cccc(NC(=O)c4cccs4)c3)nc12 | inactive | –
42 | COc1ccc2cc(C(C)=O)c(=O)oc2c1 | inconclusive [activator, single point] | –
43 | COc1ccc(-c2nnc(SCC(=O)N3c4ccccc4Sc4ccccc43)o2)cc1 | inconclusive [inhibitor, single point] | –
44 | CCc1cccc(N(CC(=O)NCc2ccc(F)cc2)C(=O)c2csnn2)c1 | – | inconclusive: 17.2% [activator]

Row | Structure (SMILES) | Potency | activity change, negative = inhibition
45 | CCn1c(SCc2ccccc2)nc2c(c1=O)SCC2 | inactive | –
46 | CN1CCc2c(n(CC(O)CNCc3ccccc3)c3ccccc23)C1=O (stereo not given) | inactive | –
47 | COc1ccc(CC2(CO)CCN(Cc3cnn(C)c3)CC2)cc1 | inconclusive [inhibitor, single point] | –
48 | C=CCc1c(C)nc(C)nc1N/N=C/c1ccc(N(C)C)cc1 | inactive | –
49 | Cc1ccc(NC(=S)NC(=O)c2ccc(F)cc2)cc1S(=O)(=O)Nc1cccc(Cl)c1 | – | inconclusive: 17% [activator]
50 | CCOC(=O)C1(CCOc2ccccc2)CCN(Cc2cnc(SC)nc2)CC1 | inactive | –
51 | C=CCc1c(C)nc(-c2ccccc2)nc1N/N=C(\C)c1ccccc1 | inactive | –
52 | CCN1C(=O)Cc2cc(S(=O)(=O)N3CCOCC3)ccc21 | inconclusive [inhibitor, partial curve] | –
53 | Cc1ccccc1C1C(C#N)=C2N=C(N)c3c(sc4c3CCCCC4)N2C2=C1C(=O)CCC2 (stereo not given) | inconclusive [inhibitor, full curve, poor fit] | –
54 | Cc1ccc(C(=O)OCC(=O)Nc2cccc(S(=O)(=O)NC3=NCCCCC3)c2)c(C)c1 | inconclusive [inhibitor, single point] | –
55 | O=S(=O)(c1cccc(NC(=S)Nc2ccc(Br)cc2Cl)c1)N1CCOCC1 | inconclusive [inhibitor, single point] | –
56 | O=C(NC(=S)N1CCc2ccccc21)c1ccccc1 | inconclusive [inhibitor, partial curve] | –
57 | O=C(CCC1CCCN(C(=O)C2(c3ccccc3)CC2)C1)N1CCN(c2ccccn2)CC1 (stereo not given) | – | inconclusive: 16.5% [activator]
58 | COc1ccc(NC(=O)c2cn(CCC#N)nc2-c2cc3ccccc3o2)cc1 | inconclusive [inhibitor, full curve] | –
59 | CCCC(=O)NC(=S)Nc1cccc2c(O)cccc12 | inactive | –
60 | CC(C)N(C(=O)CN1C(=O)C(=O)c2ccccc21)c1ccccc1 | – | inconclusive: 18.7% [activator]
61 | Cc1ccc(S(=O)(=O)n2nccc2-c2c(-c3ccccc3)noc2C)cc1 | inconclusive [inhibitor, single point] | –
62 | O=C(Nc1cccc(F)c1)NC1CCCCC1 | inconclusive [inhibitor, single point] | –
63 | CCCC(=O)NC(c1ccco1)c1c(O)ccc2ccccc12 (stereo not given) | inconclusive [activator, single point] | –
64 | COc1ccc2cc3cc(C(=O)NCCN4CCc5ccccc5C4)oc3nc2c1 | inconclusive [activator, partial curve] | –
65 | COc1ccc([N+](=O)[O-])cc1/C=N/NC(=O)Cc1ccccc1 | – | inconclusive: 18.5% [activator]
